Measured values: publication PMC4336329 (PLoS ONE, 2015)
About 14,000 (4.5%) of roughly 310,000 compounds showed an effect of 50% or more. The effect is printed as a negative number. The list shows a part of the results.

target: human ether-à-go-go-related gene (hERG) potassium channel (human, UniProt Q12809); test: primary screen, population patch clamp on CHO cells stably expressing hERG
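Also: peak tail current of the secondary pulse compared with the same well before compound.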

Sequence of human ether-à-go-go-related gene (hERG) potassium channel (Q12809 whole entry, looked up): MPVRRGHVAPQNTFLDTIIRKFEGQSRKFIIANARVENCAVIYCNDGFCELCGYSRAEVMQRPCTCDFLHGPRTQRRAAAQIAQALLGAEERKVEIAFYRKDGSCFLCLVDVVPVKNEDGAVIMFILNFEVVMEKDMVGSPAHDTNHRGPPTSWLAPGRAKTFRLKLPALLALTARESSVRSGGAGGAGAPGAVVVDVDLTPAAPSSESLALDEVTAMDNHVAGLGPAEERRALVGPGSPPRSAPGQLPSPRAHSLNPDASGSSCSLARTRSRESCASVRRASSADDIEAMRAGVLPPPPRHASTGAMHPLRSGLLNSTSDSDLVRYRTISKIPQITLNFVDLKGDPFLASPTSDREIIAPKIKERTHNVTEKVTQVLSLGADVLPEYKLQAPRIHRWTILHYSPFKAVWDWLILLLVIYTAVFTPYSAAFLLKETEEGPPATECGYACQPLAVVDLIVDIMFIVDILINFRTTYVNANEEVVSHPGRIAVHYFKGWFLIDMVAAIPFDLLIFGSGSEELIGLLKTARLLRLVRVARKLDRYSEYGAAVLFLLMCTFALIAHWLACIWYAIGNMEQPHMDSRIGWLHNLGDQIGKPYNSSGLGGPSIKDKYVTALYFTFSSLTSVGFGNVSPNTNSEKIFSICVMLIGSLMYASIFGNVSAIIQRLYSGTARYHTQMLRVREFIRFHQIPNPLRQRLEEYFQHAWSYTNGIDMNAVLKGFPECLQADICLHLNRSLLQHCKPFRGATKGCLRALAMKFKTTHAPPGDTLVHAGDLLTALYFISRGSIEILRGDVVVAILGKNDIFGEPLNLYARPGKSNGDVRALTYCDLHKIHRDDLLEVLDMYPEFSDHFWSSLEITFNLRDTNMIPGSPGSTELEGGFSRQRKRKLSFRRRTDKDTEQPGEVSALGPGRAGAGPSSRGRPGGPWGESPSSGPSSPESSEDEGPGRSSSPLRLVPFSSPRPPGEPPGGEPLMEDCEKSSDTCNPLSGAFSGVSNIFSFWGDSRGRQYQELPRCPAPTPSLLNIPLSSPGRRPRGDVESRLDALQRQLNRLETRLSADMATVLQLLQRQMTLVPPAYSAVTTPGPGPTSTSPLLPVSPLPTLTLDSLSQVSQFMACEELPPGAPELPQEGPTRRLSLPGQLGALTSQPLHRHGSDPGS

Compound | hERG current change (%, negative = inhibition) at 10uM [%]
COc1ccc(-n2nnnc2SCC(=O)c2ccc(O)c(O)c2)cc1 | -16.6
COC(=O)c1cc(C(=O)Nc2ccc(C)cn2)cc([N+](=O)[O-])c1 | -13.7
NS(=O)(=O)c1ccc(-c2ccc(/C=N/NC(=O)c3ccc([N+](=O)[O-])cc3)o2)cc1 | 11.7
O=C(Cc1ccccc1)Nc1nc2ccccc2[nH]1 | 3.62
COCCn1c(Cc2ccccc2)nnc1SCC(=O)NC(C)(C)C | 14.2
CC(=O)c1ccc(NC(=O)c2cnsn2)cc1 | 11.4
COCc1cc(Sc2c(Cl)cccc2Cl)nc(-c2ccccc2)n1 | 24.8
Cc1cc(NC(=O)CCC(=O)N(CC(=O)NCC2CCCO2)Cc2ccc(F)cc2)no1 (centres unmarked) | 6.72
Cc1ccc(SCCNC(=O)c2ccccc2F)cc1 | 1.09
O=[N+]([O-])c1cccc2c(N3CCCC3)ccnc12 | -77.7
O=S(=O)(N/N=C\c1cccnc1)c1ccccc1 | 18.3
CN(C)CCOC(C)(c1ccccc1)c1ccccn1.O=C(O)CCC(=O)O (centres unmarked) | 5.4
Cc1cc(N2CCN(C)CC2)nc2ccc(NC(=S)N3CCC4(CC3)OCCO4)cc12 | -34
CCOC(=O)CSc1n[nH]c(NC(=O)c2cccc(C)c2)n1 | -15.3
CCOC(=O)c1ccc(-n2c(C)nc3c(cnn3-c3ccccc3Cl)c2=O)cc1 | -8.21
COc1cc(NS(=O)(=O)c2ccc(NC(=S)NC(=O)/C=C/c3ccc(F)cc3)cc2)ncn1 | 10.5
CC(=O)N1CCN=C1SCc1ccccc1F | 12.6
CCOC(=O)CC(=O)CSc1nc2c(sc(=S)n2-c2ccccc2)c(=O)[nH]1 | -3.97
COc1ccc(C/C(C)=N/NC(=O)c2ccc(C)cc2C)cc1 | -0.647
O=C(Nc1ccccc1N1CCOCC1)c1ccccc1[N+](=O)[O-] | -7.67
O=C(NCCCNC(=O)c1ccc(-c2cccc(Cl)c2)o1)c1cnccn1 | -31.8
O=C1OC(=O)c2cc([N+](=O)[O-])ccc21 | 22.1
COc1ccc(CCNC(=O)c2c(C)nn(CC(C)C)c2Cl)cc1OC | -9.71

Compound | hERG current change (%, negative = inhibition) at 10uM [%]
Cc1c(Cl)cccc1NC(=O)CCC(=O)NNC(=O)c1ccco1 | 18.3
CC(C)(C)c1cc(NC(=O)c2ccco2)n(-c2ccccc2)n1 | 4.64
COc1ccc(CCNS(=O)(=O)CCNC(=O)c2ccc(OC)cc2)cc1 | -18.6
C=CCc1cccc(CNc2nc3ccccc3n2CCC)c1O | 5.13
Cc1nn(-c2ccccc2)c(C)c1NC(=O)COC(=O)c1ccc(NC(=O)CC#N)cc1 | 18.4
COC(=O)c1ccc2c(=O)n(Cc3ccco3)c(SCC(=O)Nc3ccc(C)c(Cl)c3)nc2c1 | 15.7
Cc1cccc(NS(=O)(=O)c2ccc(Oc3ccccc3)cc2)n1 | -21.8
COc1ccc(CNC(=O)CCS(=O)(=O)Cc2cccc(Cl)c2)c(OC)c1 | 21.2
O=C(NCCCO)c1cc2c(cn1)[nH]c1ccccc12 | 0.591
COc1ccc(OCC(=O)NC(=S)NNC(=O)COc2ccc(Br)cc2Cl)cc1 | 12.4
COc1ccc(CCNC(=O)C(=O)NCC2CCCN2S(=O)(=O)c2ccc(OC)cc2)cc1 (centres unmarked) | -33.5
CC(=O)Nc1nc(SCc2cccc3ccccc23)n[nH]1 | 14.5
Cn1cc(Cl)c(C(=O)Nc2cccc(Cl)c2Cl)n1 | 4.56
CCC(Sc1nc2c(cnn2-c2ccc(Cl)cc2)c(=O)[nH]1)C(=O)OC (centres unmarked) | 1.86
COC(=O)c1nc(N)sc1-c1ccc(Cl)cc1 | 11.1
CC(C)C(c1nnnn1C1CCCCC1)N1CCN(C(=O)c2ccco2)CC1 (centres unmarked) | 3.66
COc1cc(CNC2CCCCCC2)cc(OC)c1OC | -4.65
Oc1oc(-c2ccco2)nc1C=Nc1cccc(Cl)c1 | -6.76
CCCN(CCC)C(=O)c1ccc2c(c1)S(=O)(=O)c1ccccc1C2=O | -29.2
CC(=O)Nc1ccc(NC(=O)CSc2ccc(C)cc2)cc1 | 4.42
COc1ccc(/C=N\NC(=O)c2ccc([N+](=O)[O-])cc2)cc1COc1c(F)c(F)cc(F)c1F | 4.74
CC(C(=O)NCCCc1ccccc1)n1cccc1C(=O)c1ccccc1 (centres unmarked) | -5.48
Cc1cc[n+](CC(=O)Nc2ccccc2)cc1.[Br-] | 31

Compound | hERG current change (%, negative = inhibition) at 10uM [%]
NC(=O)COn1c(SCC(N)=O)nc2ccccc2c1=O | 19.3
Cn1c(=O)[nH]c(=O)c2c1nc(Br)n2CC(O)COc1ccccc1 (centres unmarked) | -0.394
CC(OC(=O)CCc1nc2ccccc2[nH]c1=O)C(=O)c1ccccc1 (centres unmarked) | -14
CCCN1C2CCCC1CC(NC(=O)c1cc(OC)cc(OC)c1)C2 (centres unmarked) | -12.6
CCC(C)NC(=O)NC(=O)N(C1CCCCC1)S(C)(=O)=O (centres unmarked) | -2.65
C=C(C)Cn1c(CCNC(=O)CCC)nc2ccccc21 | 4.16
O=[N+]([O-])c1cccc2ccc(/C=C/c3ccc(C(F)(F)F)cc3)nc12 | 4.29
COc1ccccc1-c1ccc(/C=C2/C=C(C)OC2=O)o1 | 35.7
Nc1cc(=O)nc(SCc2ccccc2)n1Cc1ccco1 | -12.7
Cc1c(OCC(=O)NCC(O)c2ccccc2)ccc2c(-c3ccccc3)cc(=O)oc12 (centres unmarked) | 4.93
CC(=O)NC(CC(=O)NCCCn1ccc2ccccc21)c1ccccc1 (centres unmarked) | 19.1
CCOC(=O)C1CCN(CCC(=O)Nc2ccc(C)cc2)CC1 | -32.4
Cc1ccc(S(=O)(=O)c2c(C)cc(C)nc2Cl)c(C)c1 | -7.3
N/C(=N\OC(=O)c1cccs1)C1(c2ccc(Cl)cc2Cl)CC1 | -0.228
Cc1c(C(=O)Nc2cccc(Cl)c2)cn2c(nc3ccccc32)c1C#N | 6.75
Clc1ccc(C(c2ccc(Cl)cc2)n2cc[n+](CC(OCc3ccc(Cl)cc3Cl)c3ccc(Cl)cc3Cl)c2)cc1.[Cl-] (centres unmarked) | -62.8
CCCc1cc(=O)oc2cc(C)cc(OCC(=O)NCCCN3CCOCC3)c12 | -7.61
O=[N+]([O-])c1ccc(S(=O)(=O)Nc2ccc(S(=O)(=O)N3CCCC3)cc2)cc1 | -14.1
CC1CCCC/C1=N\NC(=S)Nc1cccnc1 (centres unmarked) | 15.8
COc1cc(/C=N/NC(=O)c2ccc(-c3ccccc3)cc2)cc(OC)c1OC | 8.51
Cc1cc(C(=O)NC2CC(C)(C)Cc3c2cnn3-c2ccccc2C)c(C)o1 (centres unmarked) | 0.287
COc1ccccc1-n1ccnc(SCC(=O)NCc2ccccc2Cl)c1=O | 8.39
Cc1c(S(=O)(=O)N2CCN(c3ccccc3)CC2)c(=O)n(C)c(=O)n1C | -9.44

Compound | hERG current change (%, negative = inhibition) at 10uM [%]
CS(=O)(=O)N(CC(=O)NCC1CCCO1)c1ccc(F)c(Cl)c1 (centres unmarked) | -7.66
CNC(=S)N1CCC(NC(=O)C(Cc2ccccc2)NC(C)=O)CC1 (centres unmarked) | 0.532
CCCC(=O)Nc1ccc(NC(=O)c2cccc(OC)c2)nc1 | -4.43
Cc1cccc(C(=O)NCC(=O)OCC(=O)N2CCN(S(=O)(=O)c3ccc(C)cc3C)CC2)c1 | -48.9
COc1ccc(NC(=O)CSc2nnc(NC(=O)C3CC3)s2)cc1OC | 19
N#Cc1ccccc1OCC(=O)Nc1c(C(=O)C2CC2)oc2ccccc12 | 2.52
CC(C)NC(=O)c1ccc(-c2ccccc2C(F)(F)F)o1 | -7.11
C=CCNc1nc(N)c([N+](=O)[O-])c(N2CCCCCC2)n1 | -24.9
O=C(Nc1nnc(SCc2ccc(Cl)cc2)s1)C1CC(=O)N(Cc2ccccc2)C1 (centres unmarked) | 17.4
CN=c1scc(-c2ccc(Cl)cc2)n1C | -17.3
FC(F)Sc1ccc(-n2cc(-c3ccc(Cl)cc3)[n+]3c2CCC3)cc1.[Br-] | -74.3
Cc1cc(N=Nc2ccc(Cl)cc2)cc(CN2CCOCC2)c1O | 11.6
CCS(=O)(=O)N1CCC(C(=O)Nc2cccc(C(C)=O)c2)CC1 | 6.18
COc1ccc(CC(=O)OCC(=O)N2CCCc3ccccc32)cc1OC | -5.01
O=C(CN1CCCCC1)NNc1nc(-c2ccccc2)c2cc(Cl)ccc2n1 | -58
N#Cc1ccccc1OCC(=O)C1CC1 | 15.7
COc1ccc(OC)c(CCNC(=O)CSc2ccsc2[N+](=O)[O-])c1 | 13.8
COc1cc(C)ccc1OCc1cc(C(=O)N(C)CCCN2CCOCC2)no1 | -1.34
CC1=C(C(N)=O)C(c2cccc(OCc3ccccc3)c2)n2nnnc2N1 (centres unmarked) | 26.8
Cc1cc(-c2nc3c4c5c(sc4[nH]c(=O)n3n2)CCC5)c(C)o1 | 2.88
